# Among all 310,000 compounds or so, about 2,200 (0.71%) showed an effect of 50% or more. Effects have a minus sign here. Some of the results follow.
# Molecular target: human ether-à-go-go-related gene (hERG) potassium channel (human, UniProt Q12809)
# Assay: primary screen, population patch clamp on CHO cells stably expressing hERG
# Sequence of human ether-à-go-go-related gene (hERG) potassium channel (Q12809 whole entry, looked up): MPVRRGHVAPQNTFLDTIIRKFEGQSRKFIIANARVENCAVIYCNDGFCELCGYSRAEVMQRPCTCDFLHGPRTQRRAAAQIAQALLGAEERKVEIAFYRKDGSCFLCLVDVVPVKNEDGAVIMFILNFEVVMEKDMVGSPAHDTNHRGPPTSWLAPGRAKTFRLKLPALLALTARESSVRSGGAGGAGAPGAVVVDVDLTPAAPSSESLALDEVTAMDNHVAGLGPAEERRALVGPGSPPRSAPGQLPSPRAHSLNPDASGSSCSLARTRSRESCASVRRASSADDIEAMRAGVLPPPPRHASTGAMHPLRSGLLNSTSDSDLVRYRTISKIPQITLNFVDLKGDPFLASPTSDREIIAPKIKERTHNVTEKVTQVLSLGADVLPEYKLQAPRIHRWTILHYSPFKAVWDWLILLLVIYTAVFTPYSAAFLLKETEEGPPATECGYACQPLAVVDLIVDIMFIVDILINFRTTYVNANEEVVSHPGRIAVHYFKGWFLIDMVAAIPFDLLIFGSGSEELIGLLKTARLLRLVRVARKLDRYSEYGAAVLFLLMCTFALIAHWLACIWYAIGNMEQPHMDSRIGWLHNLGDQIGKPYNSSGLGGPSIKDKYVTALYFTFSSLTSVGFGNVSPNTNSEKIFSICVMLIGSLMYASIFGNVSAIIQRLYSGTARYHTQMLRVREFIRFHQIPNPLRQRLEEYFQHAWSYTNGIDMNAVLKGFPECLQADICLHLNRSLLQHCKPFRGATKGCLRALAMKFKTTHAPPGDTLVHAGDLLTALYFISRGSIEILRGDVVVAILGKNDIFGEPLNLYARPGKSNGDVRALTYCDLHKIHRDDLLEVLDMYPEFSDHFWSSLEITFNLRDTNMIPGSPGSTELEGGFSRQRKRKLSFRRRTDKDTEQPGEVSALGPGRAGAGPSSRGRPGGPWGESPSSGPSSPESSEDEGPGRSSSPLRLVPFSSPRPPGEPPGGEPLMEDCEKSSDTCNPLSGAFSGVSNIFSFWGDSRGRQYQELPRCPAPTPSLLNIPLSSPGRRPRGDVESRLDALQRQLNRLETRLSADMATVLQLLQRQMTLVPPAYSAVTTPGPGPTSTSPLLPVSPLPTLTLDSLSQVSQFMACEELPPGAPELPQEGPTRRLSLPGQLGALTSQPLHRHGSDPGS
row,SMILES,"hERG current change (%, negative = inhibition) at 1uM [%]"
1,NS(=O)(=O)c1ccc(CCNC(=O)CCCNC(=O)c2ccc(Cl)cc2)cc1,17.4
2,O=C(CCS(=O)(=O)c1cccs1)Nc1ccc(C(=O)NC2CCCC2)cc1,14.6
3,CCOc1ccc(CNC(=O)C2Cc3cc(S(=O)(=O)N4CCCC4)ccc3N2C(C)=O)cc1 (centres unmarked),1.72
4,O=S(=O)(Cc1ccc(Cl)cc1)CC(O)COCc1ccccc1 (centres unmarked),11.5
5,COc1ccc(C)cc1NC(=O)C1CCN(S(=O)(=O)c2cccc3nonc23)CC1,14.2
6,CCCCCn1c(=O)[nH]c2cc(C(=O)N3CCN(C(=O)OCC)CC3)ccc2c1=O,10.9
7,Cc1ccc(C(C(=O)Nc2ccc3c(c2)OCO3)N(C)C(=O)Cc2c[nH]c3ccccc23)cc1 (centres unmarked),14
8,COc1cc(C)ccc1OCc1cc(C(=O)N(Cc2c(C)nn(C)c2C)C2CC2)no1,2.87
9,COc1cc(NC(=O)c2cccc(C)c2)ccc1NC(=O)c1cc2ccccc2o1,-2.99
10,COc1ccc(-c2nnc(SCC(=O)NCc3ccco3)n2C)cc1,9.66
11,COc1ccc2[nH]c(=O)c(CN(c3ccccc3OC)S(=O)(=O)c3ccccc3)cc2c1,7.5
12,Cc1ccc(S(=O)(=O)c2nc(-c3ccco3)oc2NCC2CCCO2)cc1 (centres unmarked),6.32
13,CCN1CCCC1CNC(=O)c1cc(S(=O)(=O)CC)c(N)cc1OC (centres unmarked),0.395
14,Cc1onc(-c2c(Cl)cccc2Cl)c1C(=O)N1CCc2ccccc21,-0.407
15,O=C1NCCN(Cc2ccc(F)cc2)C1CC(=O)N1CC=C(c2ccccc2)CC1 (centres unmarked),14.1
16,Nc1nccnc1C(=O)OCC(=O)NC1CCCc2ccccc21 (centres unmarked),13.2
17,CCCNC(=O)Nc1ccc(C)cc1C,14.2
18,Cl.N=c1sccn1CC(=O)NC(c1ccccc1)c1ccccc1,-19.7
19,Cc1cccc(C(=O)Nc2ccnc(-c3cccnc3)n2)c1,6.86

row,SMILES,"hERG current change (%, negative = inhibition) at 1uM [%]"
1,COc1ccc(/C=N/Nc2nnc(-c3ccccc3)c(=O)[nH]2)cc1,5.63
2,CN(CC(=O)Nc1ccc(Cl)cc1)C1CCCCC1,10.1
3,O=S(=O)(Nc1cccc2cccnc12)c1ccc(S(=O)(=O)N2CCCC2)cc1,1.07
4,Cc1ccc(NC(=O)C2CCN(C(=O)c3cccs3)CC2)cc1,8.9
5,CC(C)c1cc(NC(=O)CCl)on1,14.6
6,Cc1ccc(S(=O)(=O)N2CCC(C(=O)NNC(=O)c3ccccc3)CC2)cc1,5.1
7,Cl.O=C(OCC1CCNCC1)c1ccc2c(c1)OCO2,16.5
8,CC1CN(S(=O)(=O)c2ccc(C(=O)Nc3nnc(-c4ccccn4)o3)cc2)CC(C)O1 (centres unmarked),4.53
9,Cc1ccc(CCN2CC(C(=O)NCCc3ccccc3)CC2=O)cc1 (centres unmarked),30.3
10,O=NNc1nc2ccccc2n1Cc1ccccc1,1.88
11,CCN(CC(=O)Nc1c(F)cccc1F)C(=O)c1cc(C)oc1C,2.77
12,Cc1ccc(S(=O)(=O)N(C)C)cc1NC(=O)COC(=O)c1ccc2c(=O)n3c(nc2c1)CCC3,6.83
13,C=CCn1c(C(CC)CC)nc2ccccc21,11.2
14,CC1CCN(CCc2nc3cc(NS(=O)(=O)c4ccccc4)ccc3n2C)CC1,-53.3
15,COc1ccc(CNC2CCCc3ccccc32)c(OC)c1 (centres unmarked),1.49
16,Cc1ccc2nsnc2c1S(=O)(=O)N1CCN(CCc2ccccc2)CC1,4.91
17,Cc1cc(NC(=O)CSc2nnc(C)c(=O)n2N)no1,8.28
18,Cc1ccc(N=CNc2ccc(C)cc2C)c(C)c1,14.3
19,Cc1ccc(-c2cc(C(=O)NCc3cn(C)nc3C)c3cc(Br)ccc3n2)cc1,7.49

row,SMILES,"hERG current change (%, negative = inhibition) at 1uM [%]"
1,O=C(COc1ccc(F)cc1)N1CCCCCCC1,17.4
2,O=C(NCc1ccc2c(c1)OCO2)C1CCN(c2ccc(S(=O)(=O)N3CCCC3)cc2)CC1,-0.495
3,CCN(CC)C(=O)/C(=C/c1cn(S(=O)(=O)N(C)C)c2ccccc12)NC(=O)c1ccc(OC)cc1,11.8
4,COc1ccc(-c2nn3c(-c4ccco4)nnc3s2)cc1OC,-15.4
5,S=c1[nH]nc(COc2ccccc2)n1/N=C/c1ccc(Cl)cc1Cl,9.09
6,Cc1cnc(NC(=O)CN2CCN(c3ccccc3F)CC2)s1.Cl,19.2
7,CCOC(=O)NC(=O)COC(=O)c1ccc(Sc2ncn[nH]2)c([N+](=O)[O-])c1,17.7
8,S=C(NCCc1ccncc1)Nc1cccc2ccccc12,10.2
9,NC(=O)N/N=C/c1cc(Br)ccc1OC(=O)c1ccccc1,17.1
10,CCOc1cc(C2Nc3ccccc3NC3=C2C(=O)CC(C)(C)C3)ccc1OC(C)=O (centres unmarked),7.51
11,Cc1ccc(Cl)cc1N1CCN(S(=O)(=O)c2ccc3c(c2)OCCO3)CC1,17.1
12,CCOC(=O)C1CCN(Cc2cn(C)nc2-c2ccc(Oc3ccccc3)cc2)CC1,5.24
13,C=CCn1c(CCNC(=O)c2ccccc2F)nnc1SCc1nc2ccccc2c(=O)[nH]1,-3.35
14,CCN1CCN(CC(=O)Nc2sc3c(c2C#N)CCC(C)C3)CC1 (centres unmarked),-15
15,CC(=O)Nc1ccc(NC(=O)CSc2nc3nc(C)cc(C)c3c(=O)[nH]2)cc1,12.8
16,CCSC1=N/C(=C\c2ccccc2)C(=O)N1c1ccc(OC)cc1,6.33
17,COc1ccc(C2NC(=O)C(=O)/C2=C(\O)c2ccc(Cl)cc2)cc1OC (centres unmarked),7.56
18,COC(=O)C1CN(C(=O)COc2ccccc2)c2ccccc2O1 (centres unmarked),12.2
